Laboratory results: patent US20260207704A1, “STAPLED PEPTIDES AND METHODS THEREOF” (priority 2022, published 2026)

How the values were obtained:
beta-catenin/TCF4 = target: T1, beta-catenin/TCF4 (Homo sapiens, UniProt P35222); assay: Nano-BRET target engagement assay (HEK293 cells); type: cell-based
T1 construct: expressed in transfected cells; host or cells: HEK293 cells
T1 sequence (P35222 1-781): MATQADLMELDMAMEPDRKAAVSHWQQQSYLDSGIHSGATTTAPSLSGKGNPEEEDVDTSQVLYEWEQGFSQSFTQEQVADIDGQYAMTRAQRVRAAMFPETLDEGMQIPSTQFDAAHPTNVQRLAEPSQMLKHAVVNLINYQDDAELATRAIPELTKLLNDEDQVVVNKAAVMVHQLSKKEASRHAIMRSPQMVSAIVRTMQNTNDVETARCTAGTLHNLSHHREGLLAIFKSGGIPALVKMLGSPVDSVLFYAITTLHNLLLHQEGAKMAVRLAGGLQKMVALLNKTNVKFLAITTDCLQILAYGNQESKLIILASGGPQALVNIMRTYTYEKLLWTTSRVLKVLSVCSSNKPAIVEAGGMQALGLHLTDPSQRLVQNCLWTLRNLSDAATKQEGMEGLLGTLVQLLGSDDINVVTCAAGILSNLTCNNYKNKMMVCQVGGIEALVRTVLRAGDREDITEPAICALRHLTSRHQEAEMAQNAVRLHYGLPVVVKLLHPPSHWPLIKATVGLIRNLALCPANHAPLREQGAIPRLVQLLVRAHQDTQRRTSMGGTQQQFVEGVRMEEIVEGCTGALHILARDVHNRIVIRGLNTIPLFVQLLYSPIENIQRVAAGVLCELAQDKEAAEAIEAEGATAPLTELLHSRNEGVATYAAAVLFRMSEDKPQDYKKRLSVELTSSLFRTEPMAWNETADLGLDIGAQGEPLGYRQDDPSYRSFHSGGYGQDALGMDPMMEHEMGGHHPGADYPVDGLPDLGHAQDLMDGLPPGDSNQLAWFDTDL

beta-catenin = target: T2, beta-catenin (Homo sapiens, UniProt P35222); assay: fluorescence polarization binding to beta-catenin; conditions: beta-Catenin FP IC50 (nM)
T2 sequence (P35222 1-781): T1 sequence (P35222 1-781)

Structure (SMILES)	IC50 (beta-catenin/TCF4)	IC50 (beta-catenin)
CC(=O)N1CCC[C@@]1(C)C(=O)N[C@@H](CC(=O)O)C(=O)N[C@@H](CC(C)(C)C)C(=O)N[C@]1(C)CCCCCCCOC(=O)N2CC[C@@]3(C2)NC(=O)[C@H](CCCCNC(=O)CC[C@@H](C(=O)N[C@@H](C)C(N)=O)NC(=O)[C@H](Cc2csc4ccccc24)NC(=O)[C@H](Cc2ccsc2)NC3=O)NC(=O)[C@H](Cc2ccccc2)NC(=O)[C@H](C)NC(=O)C(C)(C)NC(=O)[C@H](Cc2cccc(C(=O)O)c2)NC(=O)[C@H](CC(=O)O)NC1=O (relative stereo) [I-233, Ac-MePro-Asp-Npg-R4-Asp-3COOHF-Aib-Ala-Phe-Lys*3-PyrS2-3Thi-BztA-GlnR*3-Ala-NH2]	> 10000 nM	< 50 nM
CC(=O)N1CCC[C@@]1(C)C(=O)N[C@@H](CC(=O)O)C(=O)N[C@@H](CC(C)(C)C)C(=O)N[C@]1(C)CCCCCCCCCOC(=O)N2CC[C@@]3(C2)NC(=O)[C@H](CCCCNC(=O)CC[C@@H](C(=O)N[C@@H](C)C(N)=O)NC(=O)[C@H](Cc2csc4ccccc24)NC(=O)[C@H](Cc2ccsc2)NC3=O)NC(=O)[C@H](Cc2ccccc2)NC(=O)[C@H](C)NC(=O)C(C)(C)NC(=O)[C@H](Cc2cccc(C(=O)O)c2)NC(=O)[C@H](CC(=O)O)NC1=O (relative stereo) [I-235, Ac-MePro-Asp-Npg-R6-Asp-3COOHF-Aib-Ala-Phe-Lys*3-PyrS2-3Thi-BztA-GlnR*3-Ala-NH2]	> 10000 nM	< 50 nM
CC(=O)N1CCC[C@@]1(C)C(=O)N[C@@H](CC(=O)O)C(=O)N[C@@H](CC(C)(C)C)C(=O)N[C@]1(C)CCCCCCCOC(=O)N2CC[C@@]3(C2)NC(=O)[C@H](CCCCNC(=O)CC[C@@H](C(=O)N[C@@H](C)C(N)=O)NC(=O)[C@H](Cc2csc4ccccc24)NC(=O)[C@H](Cc2ccsc2)NC3=O)NC(=O)[C@H](Cc2ccccc2)NC(=O)[C@H](C)NC(=O)C(C)(C)NC(=O)[C@H](CN(CC(=O)O)CC(F)(F)F)NC(=O)[C@H](CC(=O)O)NC1=O (relative stereo) [I-239, Ac-MePro-Asp-Npg-R4-Asp-TfeGA-Aib-Ala-Phe-Lys*3-PyrS2-3Thi-BztA-GlnR*3-Ala-NH2]	> 10000 nM	200 to 750 nM
CC(=O)N1CCC[C@@]1(C)C(=O)N[C@@H](CC(=O)O)C(=O)N[C@@H](CC(C)(C)C)C(=O)N[C@]1(C)CCCCCCCCCOC(=O)N2CC[C@@]3(C2)NC(=O)[C@H](CCCCNC(=O)CC[C@@H](C(=O)N[C@@H](C)C(N)=O)NC(=O)[C@H](Cc2csc4ccccc24)NC(=O)[C@H](Cc2ccsc2)NC3=O)NC(=O)[C@H](Cc2ccccc2)NC(=O)[C@H](C)NC(=O)C(C)(C)NC(=O)[C@H](CN(CC(=O)O)CC(F)(F)F)NC(=O)[C@H](CC(=O)O)NC1=O (relative stereo) [I-241, Ac-MePro-Asp-Npg-R6-Asp-TfeGA-Aib-Ala-Phe-Lys*3-PyrS2-3Thi-BztA-GlnR*3-Ala-NH2]	> 10000 nM	200 to 750 nM
C[C@H](NC(=O)[C@@H]1CCC(=O)NCCCC[C@@H]2NC(=O)[C@H](Cc3ccccc3)NC(=O)[C@H](C)NC(=O)C(C)(C)NC(=O)[C@H](Cc3cccc(C(=O)O)c3)NC(=O)[C@H](CC(=O)O)NC(=O)[C@](C)(NC(=O)[C@@H]3CCCCCCC(=O)N4CCC[C@@]4(C)C(=O)N[C@@H](CC(=O)O)C(=O)N3)CCCCCCCCOC(=O)N3CC[C@@](C3)(NC2=O)C(=O)N[C@@H](Cc2ccsc2)C(=O)N[C@@H](Cc2csc3ccccc23)C(=O)N1)C(N)=O (relative stereo) [I-426, 5hexenyl-MePro-Asp-AllylGly-R5-Asp-3COOHF-Aib-Ala-Phe-Lys*3-PyrS2-3Thi-BztA-GlnR*3-Ala-NH2]	> 10000 nM	< 50 nM
C[C@H](NC(=O)[C@@H]1CCC(=O)NCCCC[C@@H]2NC(=O)[C@H](Cc3ccccc3)NC(=O)[C@H](C)NC(=O)C(C)(C)NC(=O)[C@H](Cc3cccc(C(=O)O)c3)NC(=O)[C@H](CC(=O)O)NC(=O)[C@](C)(NC(=O)[C@@H]3CC=CCCCC(=O)N4CCC[C@@]4(C)C(=O)N[C@@H](CC(=O)O)C(=O)N3)CCCC=CCCCOC(=O)N3CC[C@@](C3)(NC2=O)C(=O)N[C@@H](Cc2ccsc2)C(=O)N[C@@H](Cc2csc3ccccc23)C(=O)N1)C(N)=O (single isomer, unassigned) [I-429, 5hexenyl-MePro-Asp-AllylGly-R5-Asp-3COOHF-Aib-Ala-Phe-Lys*3-PyrS2-3Thi-BztA-GlnR*3-Ala-NH2]	> 10000 nM	< 50 nM
